In paper PMC7819943, “Rice protein-binding microarrays: a tool to detect cis-acting elements near promoter regions in rice” one finds binding signal data, which are given here for 54 sequences.

The other results are listed elsewhere or left out.

In this experiment the target is T1, OsWOX13 (Oryza sativa, UniProt Q5QMM3 1-267).
T1 sequence: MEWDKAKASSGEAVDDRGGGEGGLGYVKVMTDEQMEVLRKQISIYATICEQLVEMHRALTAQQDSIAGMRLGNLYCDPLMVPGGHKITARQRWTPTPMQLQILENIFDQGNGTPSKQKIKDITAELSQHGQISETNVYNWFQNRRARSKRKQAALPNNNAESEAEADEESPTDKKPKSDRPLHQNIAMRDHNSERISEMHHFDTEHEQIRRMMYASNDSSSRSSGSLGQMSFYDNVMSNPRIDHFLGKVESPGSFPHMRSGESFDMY
Nature of the experiment: protein-binding microarray (RPBM); PBS, 2% BSA, 51.3 ng/ul salmon testes DNA, 50 uM zinc acetate, 200 nM TF, 25 C, 1 h; high values mean tight binding. As to conditions: protein: recombinant; tags: N-terminal polyhistidine and DsRed monomer fusion (pET32a); label: CyDye5-dUTP incorporated in the synthesized complementary strand; 3' TTTTT single-stranded linker to array surface; dsDNA, one strand shown. The method, boiled down: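 The binding signal is fluorescence intensity per feature, in arbitrary units, read on an Axon 4000B scanner. Polyhistidine- and DsRed-tagged transcription factors (N-terminal fusions) from E. coli BL21-CodonPlus were purified on Ni–NTA and applied at 200 nM for 1 h at 25 °C to a double-stranded, BSA-blocked custom Agilent array in buffer with 50 µM zinc acetate.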
In the case of “ACCGATTGAAGGTAGGAAACACAATTATCTAATGACGGTACGGAGTCACCTAGTGCAG”, the binding signal was 12500 fluorescence intensity (a.u.). Take “TTATGTATTGACTAAATTTGGTAATAAACTAAACGTAGATCGGAGTCACCTAGTGCAG”: the binding signal is 6140 fluorescence intensity (a.u.). Take “TTTGATTGGATGTGACACATCCTAGTATAACGAATCTGAACGGAGTCACCTAGTGCAG”: the binding signal is 37000 fluorescence intensity (a.u.). Consider “AGAACAAATTGATTAATATTTATACATGCTGAAAAGCTTACGGAGTCACCTAGTGCAG”, for which the binding signal was 19500 fluorescence intensity (a.u.). With “ATCGTGATATAAAACCAATTAACCCACTCTCCCCAAATACCGGAGTCACCTAGTGCAG”, the binding signal was 4660 fluorescence intensity (a.u.). Turning to “ATAATTATTTTATTTTGGGACAGGATAGTTAATGGAGAGGCGGAGTCACCTAGTGCAG”, the binding signal was 9140 fluorescence intensity (a.u.). On to “AGATTAATTTCTGAGCCCCTGATTAGTTGCTCCTTCTCCACGGAGTCACCTAGTGCAG”, for which the binding signal is 29000 fluorescence intensity (a.u.). Turning to “GCTATAAATTTAGATAGAAAATATGTTTATATTCGTTATACGGAGTCACCTAGTGCAG”, the binding signal is 6400 fluorescence intensity (a.u.). Under “AGTACTAATGTGCATTGATCATTCTATTATCCCATCCGTCCGGAGTCACCTAGTGCAG” stands 3810 fluorescence intensity (a.u.); under “TTTCAAAATTTAAAATTTTGACTTTATCTGATATAAGCCACGGAGTCACCTAGTGCAG”, 6290 fluorescence intensity (a.u.); under “AATCAAATCATCTCATCAAAGTCCAATCCCGCTAGCTCCACGGAGTCACCTAGTGCAG”, 9000 fluorescence intensity (a.u.). Turning to “ATTTGATTTGATCACAACACATTAGCTTGGTTGCTCCATGCGGAGTCACCTAGTGCAG”, the binding signal was 41800 fluorescence intensity (a.u.). Under “TTCTTCGAGATCACCATGATTGAACGATCTCCGAGCTGCTCGGAGTCACCTAGTGCAG” stands 5910 fluorescence intensity (a.u.); under “AACATCAATTAAAATAAATCTGAAGGGACTAAATGATAAACGGAGTCACCTAGTGCAG”, 5220 fluorescence intensity (a.u.); under “GCAGATTAGTTGTGGCAAACATTCTCTTGTGTGCAGCACTCGGAGTCACCTAGTGCAG”, 3650 fluorescence intensity (a.u.).

On to “TTTGTCATAATTTGATAAAATTTTCCTCTTACCATATATCCGGAGTCACCTAGTGCAG”, for which the binding signal is 7320 fluorescence intensity (a.u.). Regarding “ATCAAGATAATTACATCAAAGTGATACAGGAGTCATAAAACGGAGTCACCTAGTGCAG”, the binding signal is 5770 fluorescence intensity (a.u.). As for “ACTCCTAATTAATTTGCATGCATCTTCGCAGCAACTCAGTCGGAGTCACCTAGTGCAG”, the binding signal was 37800 fluorescence intensity (a.u.).

For the sequence “TAAAACAATTATATGCCCATAATGGTATTTTAGGTATTTTCGGAGTCACCTAGTGCAG”, the binding signal is 5040 fluorescence intensity (a.u.). Under “TTAAACGTAGATTACTAACAAAACCGATTCCATAACCCCTCGGAGTCACCTAGTGCAG” stands 3350 fluorescence intensity (a.u.). Turning to “TCAGACTCTTGTTGATTGTGATGACTTTGTCTGCAGACTTCGGAGTCACCTAGTGCAG”, the binding signal was 11100 fluorescence intensity (a.u.). Consider “TTTTATTGTTAACTAGGCATGATTTTACGTGGAATCTTGTCGGAGTCACCTAGTGCAG”, for which the binding signal is 6660 fluorescence intensity (a.u.). For “TCTAAACACCACCTTAATTTGTAGGAGTAGCTGTCTGTCTCGGAGTCACCTAGTGCAG”, the binding signal is 10700 fluorescence intensity (a.u.).

For the sequence “ACCAGATTATTACAGAATCTTGTGAAAGATAAAATGGTCTCGGAGTCACCTAGTGCAG”, the binding signal is 6450 fluorescence intensity (a.u.). Consider “CATTGTGATTAGCCTTAACCAATTATAACCATCACGGCAACGGAGTCACCTAGTGCAG”, for which the binding signal was 33900 fluorescence intensity (a.u.). For the sequence “CTCATTCCTTCAATCATCATGAGTTAATGACACCTCAAACCGGAGTCACCTAGTGCAG”, the binding signal was 14000 fluorescence intensity (a.u.). As for “AAAATTTCCAATTTGCAGTGTGGCTGACAGTTTCCTTATTCGGAGTCACCTAGTGCAG”, the figure is 5780 fluorescence intensity (a.u.). For “AACAATTAATCATGTAAATTTAATGTTACTATATTTATCTCGGAGTCACCTAGTGCAG”, the binding signal is 27600 fluorescence intensity (a.u.).

On to “AATCATCAAATTATTATTGCTAATTGATAATAATAATAATCGGAGTCACCTAGTGCAG”, for which the binding signal is 17500 fluorescence intensity (a.u.). Under “GTTAATGATTAATTAGAGCATTTGTTGTCTCAACTATTGTCGGAGTCACCTAGTGCAG” stands 58600 fluorescence intensity (a.u.); under “TTGATCAGCTAATTAATACAACCCAACCTTCACTAAGTTGCGGAGTCACCTAGTGCAG”, 14500 fluorescence intensity (a.u.); under “CGTTGATTGCCGATTCGACGATCCCACGGCTGAGAAAGGGCGGAGTCACCTAGTGCAG”, 51400 fluorescence intensity (a.u.).

Regarding “AAGTAATCTCAAAAGAATTGATTTCTAGCCCCATACCTAACGGAGTCACCTAGTGCAG”, the binding signal was 4290 fluorescence intensity (a.u.). Regarding “CCCAACAAATCACAAGCTTAATTACAAACATTGCAGCCTGCGGAGTCACCTAGTGCAG”, the binding signal was 22000 fluorescence intensity (a.u.). As for “GGACGATTAATTACACTCCGGTTGCAAATTCAGCATGCTGCGGAGTCACCTAGTGCAG”, the figure is 11600 fluorescence intensity (a.u.); as for “CAAATTTGAATCAAATATAATTCAAATTCAAATTTAAATCCGGAGTCACCTAGTGCAG”, 4840 fluorescence intensity (a.u.). Take “TTAATTCTAATTGTCCAGGTGTATTGTGACGATTCTTTTGCGGAGTCACCTAGTGCAG”: the binding signal was 4040 fluorescence intensity (a.u.).

For “CTCGTTTCTTAATTTCATTAATTAACCCCTTCATGATTGCCGGAGTCACCTAGTGCAG”, the binding signal is 12500 fluorescence intensity (a.u.). As for “AGGAAAATCTTAGGTGAGTGATTGTACATCAATGTTGTCACGGAGTCACCTAGTGCAG”, the binding signal is 5380 fluorescence intensity (a.u.). Under “ATTACATAGATTGCGACTAATTTGCGAGACAAATCTTTTACGGAGTCACCTAGTGCAG” stands 19500 fluorescence intensity (a.u.); under “CACACATCAATCATTCTTTGTGCTTACTGCGTCCACGAGCCGGAGTCACCTAGTGCAG”, 14900 fluorescence intensity (a.u.). In the case of “CCTTTAATCATAGGATTGAGAAAACGTAGGAATAAGAAAACGGAGTCACCTAGTGCAG”, the binding signal was 4860 fluorescence intensity (a.u.).

With “CAAAATTAAACTTTAAAATTCAGACTTCAGACTCCAGTGCCGGAGTCACCTAGTGCAG”, the binding signal was 13400 fluorescence intensity (a.u.). Regarding “CATTTTGATATATCAATCGTCTTTATCACATGTAACGACACGGAGTCACCTAGTGCAG”, the binding signal was 10700 fluorescence intensity (a.u.). For “GAATATATTCAATTATTGATTTGATGAAACTAATTAAATACGGAGTCACCTAGTGCAG”, the binding signal was 14200 fluorescence intensity (a.u.). As to “TGCATTAATTATTGGAGAGTGCGGTCTCCTCTCCTCCCTCCGGAGTCACCTAGTGCAG”, the binding signal was 23200 fluorescence intensity (a.u.). For the sequence “AATATGATTGCTTTGTGGGTGTATGGTTCATTTTCAATGGCGGAGTCACCTAGTGCAG”, the binding signal is 47700 fluorescence intensity (a.u.). Turning to “AGTTTGTGATTATAGCTTCCCTAAATGTATTTCAGCAGGACGGAGTCACCTAGTGCAG”, the binding signal was 7140 fluorescence intensity (a.u.). Consider “AATCCAATTACACACATGATATGCAGGGGACCATCAGAAGCGGAGTCACCTAGTGCAG”, for which the binding signal was 20700 fluorescence intensity (a.u.). Turning to “AGTATGGCAGCCACGAAATGATTGAAATCAACTGGCTCTTCGGAGTCACCTAGTGCAG”, the binding signal was 7450 fluorescence intensity (a.u.). As for “TCGATAAATTGAGGAGACCAAAATTCACGAAATCAACATACGGAGTCACCTAGTGCAG”, the binding signal is 7550 fluorescence intensity (a.u.). Regarding “CCTGATTCCTTCAACTGTTTCGTCAGCCATGACGAGCGTTCGGAGTCACCTAGTGCAG”, the binding signal is 6750 fluorescence intensity (a.u.). “AATATAACGAAACATGCAATCAATCAAAATGTTGGGAAGGCGGAGTCACCTAGTGCAG”: the binding signal is 12400 fluorescence intensity (a.u.).

In the case of “GATGATAGACAAAACTGAGTTTATGACAATTATTCGAGAGCGGAGTCACCTAGTGCAG”, the binding signal was 51600 fluorescence intensity (a.u.).
